# From the supplement of paper PMC4604168 (melanoma cell lines)
# Some of the results follow. Single values are uncertain, as repeats are few or missing.
# What was measured:
# Experiment in all cases: cell count relative to DMSO control; melanoma cells; higher = more viable cells
# Conditions in all cases: library dose: standard library concentration; 72 h
# A101D = tested on: A101D
# A2058 = tested on: A2058
# A375 = tested on: A375
# 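Note: cells treated in 1,536-well plates, then fixed and DAPI-stained, with nuclei counted from automated high-throughput microscope images.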
Compound,cell count (A101D) [%],cell count (A2058) [%],cell count (A375) [%]
"C[As](C)SC[C@H](NC(=O)CC[C@H](N)C(=O)O)C(=O)NCC(=O)O [Darinaparsin] + C[C@]1(c2nc3c(C(N)=O)cccc3[nH]2)CCCN1 [Veliparib] (first compound 2 µM, partner dose 7 µM)",76.3,62.2,73.8
"Cn1cc(C2=C(c3cn(C4CCN(Cc5ccccn5)CC4)c4ccccc34)C(=O)NC2=O)c2ccccc21 [Enzastaurin] + CC(=O)c1c(C)c2cnc(Nc3ccc(N4CCNCC4)cn3)nc2n(C2CCCC2)c1=O [palbociclib] (first compound 4 µM, partner dose 0.2 µM)",49,105,71.2
"N.N.[Cl][Pt][Cl] [cisplatin] + CC(C)(C)c1cnc(CSc2cnc(NC(=O)C3CCNCC3)s2)o1 [SNS-032] (first compound 8 µM, partner dose 0.05 µM)",83.7,84.5,96.9
"Cn1cc(C2=C(c3cn(C4CCN(Cc5ccccn5)CC4)c4ccccc34)C(=O)NC2=O)c2ccccc21 [Enzastaurin] + C=CCn1c(=O)c2cnc(Nc3ccc(N4CCN(C)CC4)cc3)nc2n1-c1cccc(C(C)(C)O)n1 [MK1775] (first compound 4 µM, partner dose 0.1 µM)",69.7,72,55.3
"Cn1cc(C2=C(c3cn(C4CCN(Cc5ccccn5)CC4)c4ccccc34)C(=O)NC2=O)c2ccccc21 [Enzastaurin] + NC(=O)c1ccc(N(C(N)=O)c2c(F)cccc2F)nc1-c1ccc(F)cc1F [VX702] (first compound 4 µM, partner dose 2 µM)",50.1,74.2,103
"C[As](C)SC[C@H](NC(=O)CC[C@H](N)C(=O)O)C(=O)NCC(=O)O [Darinaparsin] + NC(=O)Nc1cc(-c2cccc(F)c2)sc1C(=O)N[C@H]1CCCNC1 [AZD7762] (first compound 2 µM, partner dose 0.1 µM)",60.8,50.2,49.4
"Cn1cc(C2=C(c3cn(C4CCN(Cc5ccccn5)CC4)c4ccccc34)C(=O)NC2=O)c2ccccc21 [Enzastaurin] + CN(c1ncccc1CNc1nc(Nc2ccc3c(c2)CC(=O)N3)ncc1C(F)(F)F)S(C)(=O)=O [PF562271] (first compound 4 µM, partner dose 0.4 µM)",74.5,63.7,65.4
"Cn1cc(C2=C(c3cn(C4CCN(Cc5ccccn5)CC4)c4ccccc34)C(=O)NC2=O)c2ccccc21 [Enzastaurin] + O=C(Nc1cccc(Cl)c1)Nc1ncc(CCNc2ncnc3ccsc23)s1 [SNS314] (first compound 4 µM, partner dose 0.004 µM)",42.5,82.7,66.7
"N.N.[Cl][Pt][Cl] [cisplatin] + NCC(=O)Nc1ccc(-n2nc(C(F)(F)F)cc2-c2ccc3c(ccc4ccccc43)c2)cc1 [OSU03012] (first compound 8 µM, partner dose 5 µM)",91.5,95.6,56.5
"C[As](C)SC[C@H](NC(=O)CC[C@H](N)C(=O)O)C(=O)NCC(=O)O [Darinaparsin] + O=C(O)c1ccc(-c2c[nH]c3ncc(-c4ccccc4)cc23)cc1C1CCCC1 [GSK650394] (first compound 2 µM, partner dose 0.8 µM)",75.2,91.8,89.4
"Cn1cc(C2=C(c3cn(C4CCN(Cc5ccccn5)CC4)c4ccccc34)C(=O)NC2=O)c2ccccc21 [Enzastaurin] + NC1(c2ccc(-c3nc4ccn5c(=O)[nH]nc5c4cc3-c3ccccc3)cc2)CCC1 [MK2206] (first compound 4 µM, partner dose 2 µM)",43.6,57.5,107
"C[As](C)SC[C@H](NC(=O)CC[C@H](N)C(=O)O)C(=O)NCC(=O)O [Darinaparsin] + Cn1cncc1[C@@](N)(c1ccc(Cl)cc1)c1ccc2c(c1)c(-c1cccc(Cl)c1)cc(=O)n2C [tipifarnib] (first compound 2 µM, partner dose 0.05 µM)",75.5,100,69.7
"C[C@]12O[C@H](C[C@]1(O)CO)n1c3ccccc3c3c4c(c5c6ccccc6n2c5c31)CNC4=O [Lestaurtinib] + CCN(CC)CCNC(=O)c1c(C)[nH]c(/C=C2\C(=O)Nc3ccc(F)cc32)c1C [sunitinib] (first compound 0.02 µM, partner dose 2 µM)",64.3,61.8,86.7
"N.N.[Cl][Pt][Cl] [cisplatin] + Cc1nc(Nc2ncc(C(=O)Nc3c(C)cccc3Cl)s2)cc(N2CCN(CCO)CC2)n1 [dasatanib] (first compound 8 µM, partner dose 0.02 µM)",70.4,95.1,76.5
"N.N.[Cl][Pt][Cl] [cisplatin] + CO[C@@H]1[C@H](N(C)C(=O)c2ccccc2)C[C@H]2O[C@]1(C)n1c3ccccc3c3c4c(c5c6ccccc6n2c5c31)C(=O)NC4 [Midostaurin] (first compound 8 µM, partner dose 0.4 µM)",55.2,73.9,71.6
"C[C@]12O[C@H](C[C@]1(O)CO)n1c3ccccc3c3c4c(c5c6ccccc6n2c5c31)CNC4=O [Lestaurtinib] + C[As](C)SC[C@H](NC(=O)CC[C@H](N)C(=O)O)C(=O)NCC(=O)O [Darinaparsin] (first compound 0.02 µM, partner dose 2 µM)",81.2,122,109
"C[C@]12O[C@H](C[C@]1(O)CO)n1c3ccccc3c3c4c(c5c6ccccc6n2c5c31)CNC4=O [Lestaurtinib] + CO[C@@H]1[C@H](N(C)C(=O)c2ccccc2)C[C@H]2O[C@]1(C)n1c3ccccc3c3c4c(c5c6ccccc6n2c5c31)C(=O)NC4 [Midostaurin] (first compound 0.02 µM, partner dose 0.4 µM)",62.5,72.7,86.7
"C[C@]12O[C@H](C[C@]1(O)CO)n1c3ccccc3c3c4c(c5c6ccccc6n2c5c31)CNC4=O [Lestaurtinib] + C=CCn1c(=O)c2cnc(Nc3ccc(N4CCN(C)CC4)cc3)nc2n1-c1cccc(C(C)(C)O)n1 [MK1775] (first compound 0.02 µM, partner dose 0.1 µM)",55.8,65.2,56.6
"C[C@]12O[C@H](C[C@]1(O)CO)n1c3ccccc3c3c4c(c5c6ccccc6n2c5c31)CNC4=O [Lestaurtinib] + CS(=O)(=O)c1ccc(C(=O)Nc2ccc(Cl)c(-c3ccccn3)c2)c(Cl)c1 [vismodegib] (first compound 0.02 µM, partner dose 5 µM)",65.2,108,112
"Cn1cc(C2=C(c3cn(C4CCN(Cc5ccccn5)CC4)c4ccccc34)C(=O)NC2=O)c2ccccc21 [Enzastaurin] + Cc1cc([N+](=O)[O-])ccc1NS(=O)(=O)c1cc(Cl)ccc1Cl [FH535] (first compound 4 µM, partner dose 5 µM)",46.7,101,104
"C[As](C)SC[C@H](NC(=O)CC[C@H](N)C(=O)O)C(=O)NCC(=O)O [Darinaparsin] + C=CCn1c(=O)c2cnc(Nc3ccc(N4CCN(C)CC4)cc3)nc2n1-c1cccc(C(C)(C)O)n1 [MK1775] (first compound 2 µM, partner dose 0.1 µM)",54.3,63.3,49.5
"N.N.[Cl][Pt][Cl] [cisplatin] + O=C(CCCCCCC(=O)Nc1ccccc1)NO [vorinostat] (first compound 8 µM, partner dose 0.4 µM)",58.1,71.6,93.8
"C[C@]12O[C@H](C[C@]1(O)CO)n1c3ccccc3c3c4c(c5c6ccccc6n2c5c31)CNC4=O [Lestaurtinib] + OCCn1cc(-c2cnc3nnn(Cc4ccc5ncccc5c4)c3n2)cn1 [PF04217903] (first compound 0.02 µM, partner dose 5 µM)",67.5,107,135
"N.N.[Cl][Pt][Cl] [cisplatin] + O=C(Oc1ccc([N+](=O)[O-])cc1)N1CCC(C(O)(c2ccc3c(c2)OCO3)c2ccc3c(c2)OCO3)CC1 [JZL184] (first compound 8 µM, partner dose 5 µM)",67.4,103,92.2
"C[As](C)SC[C@H](NC(=O)CC[C@H](N)C(=O)O)C(=O)NCC(=O)O [Darinaparsin] + COc1cc(Nc2ncc(F)c(Nc3ccc4c(n3)NC(=O)C(C)(C)O4)n2)cc(OC)c1OC [Tamatinib] (first compound 2 µM, partner dose 2 µM)",34.7,83.5,83.3
"N.N.[Cl][Pt][Cl] [cisplatin] + Cn1cncc1[C@@](N)(c1ccc(Cl)cc1)c1ccc2c(c1)c(-c1cccc(Cl)c1)cc(=O)n2C [tipifarnib] (first compound 8 µM, partner dose 0.05 µM)",58.2,78.3,82.5
"N.N.[Cl][Pt][Cl] [cisplatin] + Nc1nc(F)nc2c1ncn2[C@@H]1O[C@H](CO)[C@@H](O)[C@@H]1O [fludarabine] (first compound 8 µM, partner dose 1 µM)",75.8,67.8,48.7
"Cn1cc(C2=C(c3cn(C4CCN(Cc5ccccn5)CC4)c4ccccc34)C(=O)NC2=O)c2ccccc21 [Enzastaurin] + C[C@@H](Oc1cc(-c2cnn(C3CCNCC3)c2)cnc1N)c1c(Cl)ccc(F)c1Cl [Crizotinib] (first compound 4 µM, partner dose 1 µM)",40.2,57.8,88.2
